# Reference: the supplement of paper PMC8728848
# The list shows a part of the results.
# B1: SP15308A-bot-339-19-339 (Bacteroides ovatus) (protein)
# chain: ACNNEWEDEQYEQYISFKSPIPAGGEGVTDIYVRYKEDGKVTYRLPIVVSGSTTNTLDREVHIAVDKDTLETLNIERFSIHRPGLWYTALEEDKYDFPKTVHISAGSSVEQLNIDFNLQGIDMLEKWVLPLTIVDDPSYNYKSHPRKNYAKALLRVIPFNNYSGSYTSSAMKVYTYINGKPDTNARTANKRTGYVINDNTVFFYAGLISEDLDKEVREKYKINVHFNEDGTLHMEQGDPTNKMKFELIGTPTYSKTSVMDATRPYLERRYVQIMFEYDFEDFSYGGNGVDVIPIKYKVEGSMTLQRNINTQIPDEDQQIEW
# Legend:
# Test in all cases: glycan array binding signal (z-score within array); higher = stronger binding
# Conditions in all cases: glycan notation: IUPAC condensed, linker removed
# [1] = target: GalNAc(b1-4)GlcNAc(b1-2)Man
# How it was run: (§1)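 Columns mapping to the same glycan were averaged after glycan names were converted to IUPAC-condensed notation. The data come from 3228 arrays in the Consortium for Functional Glycomics database, limited to those with an available protein sequence. Binding is reported as a within-array Z-score averaged across arrays of one protein sequence and across linkers.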
# [2] = target: GalNAc(b1-4)GlcNAc(b1-2)Man(a1-3)[GalNAc(b1-4)GlcNAc(b1-2)Man(a1-6)]Man(b1-4)GlcNAc(b1-4)GlcNAc
# How it was run: as §1
# [3] = target: GalNAc(b1-4)GlcNAc(b1-3)GalNAc(b1-4)GlcNAc
# How it was run: as §1
# GalNAc(b1-4)GlcNAc6S = target: GalNAc(b1-4)GlcNAc6S
# How it was run: as §1
# GalNAc(b1-6)GalNAc = target: GalNAc(b1-6)GalNAc
# How it was run: as §1
# GalNAc3S(b1-4)GlcNAc = target: GalNAc3S(b1-4)GlcNAc
# How it was run: as §1
# GalNAc3S(b1-4)GlcNAc3S = target: GalNAc3S(b1-4)GlcNAc3S
# How it was run: as §1
# [4] = target: GalNAc3S(b1-4)[Fuc(a1-3)]GlcNAc
# How it was run: as §1
# GalNAc4S6S(b1-4)GlcNAc = target: GalNAc4S6S(b1-4)GlcNAc
# How it was run: as §1
# GalNAc6S(b1-4)GlcNAc = target: GalNAc6S(b1-4)GlcNAc
# How it was run: as §1
# Glc(a1-4)Glc = target: Glc(a1-4)Glc
# How it was run: as §1
# [5] = target: Glc(a1-4)Glc(a1-4)Glc(a1-4)Glc
# How it was run: as §1
# Glc(a1-6)Glc(a1-6)Glc = target: Glc(a1-6)Glc(a1-6)Glc
# How it was run: as §1
# [6] = target: Glc(a1-6)Glc(a1-6)Glc(a1-6)Glc
# How it was run: as §1
# Glc(b1-4)Glc = target: Glc(b1-4)Glc
# How it was run: as §1
# Glc(b1-6)Glc = target: Glc(b1-6)Glc
# How it was run: as §1
# GlcA(b1-3)Gal = target: GlcA(b1-3)Gal
# How it was run: as §1
# GlcA(b1-3)GlcNAc = target: GlcA(b1-3)GlcNAc
# How it was run: as §1
# GlcA(b1-6)Gal = target: GlcA(b1-6)Gal
# How it was run: as §1
# [7] = target: GlcA3S(b1-3)Gal(b1-4)GlcNAc(b1-2)Man
# How it was run: as §1
# [8] = target: GlcA3S(b1-3)Gal(b1-4)GlcNAc(b1-3)Gal(b1-4)Glc
# How it was run: as §1
# [9] = target: GlcNAc(a1-3)Gal(b1-4)GlcNAc
# How it was run: as §1
# [10] = target: GlcNAc(a1-4)Gal(b1-3)GlcNAc
# How it was run: as §1
# [11] = target: GlcNAc(a1-4)Gal(b1-4)GalNAc
# How it was run: as §1
# [12] = target: GlcNAc(a1-4)Gal(b1-4)GlcNAc
# How it was run: as §1
# [13] = target: GlcNAc(a1-4)Gal(b1-4)GlcNAc(b1-3)Gal(b1-4)Glc
# How it was run: as §1
# [14] = target: GlcNAc(a1-4)Gal(b1-4)GlcNAc(b1-3)Gal(b1-4)GlcNAc
# How it was run: as §1
# [15] = target: GlcNAc(a1-4)Gal(b1-4)GlcNAc(b1-3)Gal(b1-4)GlcNAc(b1-3)Gal(b1-4)GlcNAc
# How it was run: as §1
# [16] = target: GlcNAc(a1-4)Gal(b1-4)GlcNAc(b1-3)Gal(b1-4)[Fuc(a1-3)]GlcNAc(b1-3)Gal(b1-4)[Fuc(a1-3)]GlcNAc
# How it was run: as §1
# [17] = target: GlcNAc(a1-6)Gal(b1-4)GlcNAc
# How it was run: as §1
# [18] = target: GlcNAc(b1-2)Gal(b1-3)GalNAc
# How it was run: as §1
# [19] = target: GlcNAc(b1-2)Man(a1-3)[GlcNAc(b1-2)Man(a1-6)]Man(b1-4)GlcNAc(b1-4)GlcNAc
# How it was run: as §1
# [20] = target: GlcNAc(b1-2)Man(a1-3)[GlcNAc(b1-2)Man(a1-6)]Man(b1-4)GlcNAc(b1-4)[Fuc(a1-6)]GlcNAc
# How it was run: as §1
# [21] = target: GlcNAc(b1-2)Man(a1-3)[GlcNAc(b1-4)][GlcNAc(b1-2)Man(a1-6)]Man(b1-4)GlcNAc(b1-4)GlcNAc
# How it was run: as §1
# [22] = target: GlcNAc(b1-2)Man(a1-3)[GlcNAc(b1-4)][GlcNAc(b1-2)Man(a1-6)]Man(b1-4)GlcNAc(b1-4)[Fuc(a1-6)]GlcNAc
# How it was run: as §1
# [23] = target: GlcNAc(b1-2)[GlcNAc(b1-4)]Man(a1-3)[GlcNAc(b1-2)Man(a1-6)]Man(b1-4)GlcNAc(b1-4)GlcNAc
# How it was run: as §1
# [24] = target: GlcNAc(b1-2)[GlcNAc(b1-4)]Man(a1-3)[GlcNAc(b1-4)][GlcNAc(b1-2)Man(a1-6)]Man(b1-4)GlcNAc(b1-4)GlcNAc
# How it was run: as §1
binder,measurement,setting,value
B1,glycan array binding signal (z-score),[1],-0.103
same,glycan array binding signal (z-score),[2],1.54
same,glycan array binding signal (z-score),[3],0
same,glycan array binding signal (z-score),GalNAc(b1-4)GlcNAc6S,-0.085
same,glycan array binding signal (z-score),GalNAc(b1-6)GalNAc,-0.485
same,glycan array binding signal (z-score),GalNAc3S(b1-4)GlcNAc,-0.022
same,glycan array binding signal (z-score),GalNAc3S(b1-4)GlcNAc3S,-0.114
same,glycan array binding signal (z-score),[4],-0.125
same,glycan array binding signal (z-score),GalNAc4S6S(b1-4)GlcNAc,-0.366
same,glycan array binding signal (z-score),GalNAc6S(b1-4)GlcNAc,-0.368
same,glycan array binding signal (z-score),Glc(a1-4)Glc,-0.119
same,glycan array binding signal (z-score),[5],-0.416
same,glycan array binding signal (z-score),Glc(a1-6)Glc(a1-6)Glc,-0.006
same,glycan array binding signal (z-score),[6],0.999
same,glycan array binding signal (z-score),Glc(b1-4)Glc,-0.218
same,glycan array binding signal (z-score),Glc(b1-6)Glc,-0.042
same,glycan array binding signal (z-score),GlcA(b1-3)Gal,0.164
same,glycan array binding signal (z-score),GlcA(b1-3)GlcNAc,-0.486
same,glycan array binding signal (z-score),GlcA(b1-6)Gal,0.866
same,glycan array binding signal (z-score),[7],0.245
same,glycan array binding signal (z-score),[8],-0.574
same,glycan array binding signal (z-score),[9],0.267
same,glycan array binding signal (z-score),[10],-0.025
same,glycan array binding signal (z-score),[11],0.024
same,glycan array binding signal (z-score),[12],-0.275
same,glycan array binding signal (z-score),[13],0.185
same,glycan array binding signal (z-score),[14],-0.188
same,glycan array binding signal (z-score),[15],-0.27
same,glycan array binding signal (z-score),[16],0.595
same,glycan array binding signal (z-score),[17],-0.122
same,glycan array binding signal (z-score),[18],0.906
same,glycan array binding signal (z-score),[19],-0.386
same,glycan array binding signal (z-score),[20],0.166
same,glycan array binding signal (z-score),[21],-0.365
same,glycan array binding signal (z-score),[22],-0.474
same,glycan array binding signal (z-score),[23],-0.083
same,glycan array binding signal (z-score),[24],1.11
